# Measurements taken from PubChem BioAssay (Tox21).
# Inconclusive means that the source gave no clear call. Such entries were picked first, then a sample of the others. For part of these data: No potency is given beside an inconclusive call; the fits are too rough. Active and inactive are the calls of the source. Unless noted, the call rests on the fitted dose curve; in most records, active means well fitted cell-killing curve with a large enough effect in the repeat runs; inconclusive means weak or mixed curves, or effect the other way; inactive means no such curve, though single readings can be large or run the other way.
# Target: Bile acid receptor (Homo sapiens) (UniProt Q96RI1)
# Assay: qHTS assay to identify small molecule antagonists of the farnesoid-X-receptor (FXR) signaling pathway (AID 743217; active means well fitted inhibition curve with a large enough effect in the signal ratio in the repeat runs, not every such curve was filed as active; inconclusive means weak or mixed curves, or effect the other way; inactive means no such curve, though single readings can be large or run the other way; the % refers to the signal ratio)
# Conditions: HEK293T FXR-UAS-bla, beta-lactamase ratio, CDCA-stimulated, 16 h; activity change, negative = inhibition: at 62.6 µM (top of the series) unless noted
# Procedure, shortened: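 Antagonist mode against 50 uM (final) chenodeoxycholic acid stimulation in FXR-bla HEK 293T cells, 16 h at 37 °C. Inhibition detected as reduced beta-lactamase activity via LiveBLAzer B/G FRET fluorescence after 2 h at room temperature.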
# On the % scale 0 is the no-effect control and ±100 the full control effect; tags describe the fitted curve by direction and shape or compound fluorescence and quenching.
# Sequence of UniProt Q96RI1 (Q96RI1 whole entry, looked up): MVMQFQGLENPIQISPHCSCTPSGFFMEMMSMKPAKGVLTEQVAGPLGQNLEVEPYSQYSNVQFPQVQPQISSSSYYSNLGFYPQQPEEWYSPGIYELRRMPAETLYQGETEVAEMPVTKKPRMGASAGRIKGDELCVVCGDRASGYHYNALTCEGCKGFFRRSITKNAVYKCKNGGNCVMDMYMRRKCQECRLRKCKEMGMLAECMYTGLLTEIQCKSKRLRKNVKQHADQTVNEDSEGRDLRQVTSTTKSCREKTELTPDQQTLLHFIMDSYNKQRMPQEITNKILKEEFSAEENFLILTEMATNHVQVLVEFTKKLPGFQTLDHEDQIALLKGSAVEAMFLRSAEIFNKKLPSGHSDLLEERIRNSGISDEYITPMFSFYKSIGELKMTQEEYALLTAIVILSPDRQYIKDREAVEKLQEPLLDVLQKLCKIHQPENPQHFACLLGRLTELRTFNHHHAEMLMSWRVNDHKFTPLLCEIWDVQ
row,Compound,"activity change, negative = inhibition"
1,CS(C)=O,inactive: 6.04%
2,Cc1cc(C)c(C)c(C)c1,inactive: 2.03%
3,COc1ccc2cc(CCC(C)=O)ccc2c1,inconclusive: 10.3%

# Tested on: not listed separately
# Assay: qHTS assay to identify small molecule agonists of the farnesoid-X-receptor (FXR) signaling pathway - cell viability counter screen (AID 743218); further: nearly all actives have a fitted effect of over 45% in size; further: potency means the concentration at half of the fitted maximal effect
# Conditions: FXR-bla HEK293T viability, CellTiter-Glo luminescence, 16 h; viability change, negative = cytotoxic: at 62.6 µM (top of the series) unless noted
# Procedure, shortened: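 Cytotoxicity counter-screen run in parallel, same wells: FXR-UAS-bla HEK 293T cells dosed 16 h at 37 C, viability read by CellTiter-Glo luminescence after 30 min at room temperature.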
Compound,"viability change, negative = cytotoxic",Potency
FC(F)(Cl)C(F)(Cl)Cl,inconclusive: 15.2%,
O=C(OCCc1ccccc1)c1ccccc1,inactive: 2.78%,
O=C(O)C(=O)O,,"inconclusive [rising, partial curve, poor fit]"
Cc1c(N(C)CS(=O)(=O)O)c(=O)n(-c2ccccc2)n1C,,"inconclusive [rising, full curve, poor fit]"
CCC(=O)O[C@@H]1C[C@H]2CC[C@]1(C)C2(C)C,,"inconclusive [rising, full curve, poor fit]"
CC(=O)c1ccc2c(c1)N(CCCN(C)C)c1ccccc1S2,,"inconclusive [cytotoxic, single point]"
O=C1N(c2ccccc2)c2ccccc2C1(Cc1ccncc1)Cc1ccncc1,,"inconclusive [rising, partial curve, poor fit]"
Clc1cccc(-c2cc(Cl)cc(Cl)c2)c1,,"inconclusive [rising, full curve, poor fit]"

# Target: Bile acid receptor (Homo sapiens) (UniProt Q96RI1)
# Assay: qHTS assay to identify small molecule agonists of the farnesoid-X-receptor (FXR) signaling pathway (AID 743220; active means well fitted activation curve with a large enough effect in the signal ratio in the repeat runs, not every such curve was filed as active; inconclusive means weak or mixed curves, or effect the other way; the % refers to the signal ratio)
# Conditions: HEK293T FXR-UAS-bla, beta-lactamase FRET ratio, 16 h; activation: at 62.6 µM (top of the series)
# Procedure, shortened: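 Beta-lactamase reporter under UAS control in GeneBLAzer FXR HEK 293T cells (5000/well) measured with LiveBLAzer FRET substrate after 2 h at room temperature. Compound exposure lasted 16 h at 37C.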
row,Compound,activation
1,CCCC(C)=O,inconclusive: -0.171%
2,CS(C)=O,inactive: -0.47%
3,CC(C)(C)c1ccc(OC(=O)c2ccccc2O)cc1,inactive: -0.392%

# Tested on: not listed separately
# Assay: qHTS assay to identify small molecule antagonists of the farnesoid-X-receptor (FXR) signaling pathway - cell viability counter screen (AID 743221; active means well fitted cell-killing curve with a large enough effect in the repeat runs, not every such curve was filed as active; inconclusive means weak or mixed curves, or effect the other way; inactive means no such curve, though single readings can be large or run the other way; further: nearly all actives have a fitted effect of over 50% in size; further: potency means the concentration at half of the fitted maximal effect)
# Conditions: FXR-bla HEK293T viability, CellTiter-Glo luminescence, 16 h; activity change, negative = cytotoxicity: at 62.6 µM (top of the series) unless noted
# Procedure, shortened: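 Quantitative HTS of the Tox21 10K library run in parallel with the beta-lactamase reporter read. HEK 293T cells carrying a UAS-driven bla reporter got compound and 50 uM CDCA (final) for 16 h; ATP-based luminescence followed.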
row,Compound,Potency
1,CCCC(C)=O,inactive
2,CCCCCCCCCCCCOCCOS(=O)(=O)O,inconclusive
3,CC(=O)c1ccc2c(c1)N(CCCN(C)C)c1ccccc1S2,"inconclusive [falling, partial curve, poor fit]"
4,CC(C)COC(=O)c1ccccc1,"inconclusive [falling, single point]"

# Target: Vitamin D3 receptor (Homo sapiens) (UniProt P11473)
# Assay: qHTS assay to identify small molecule agonists of the vitamin D receptor (VDR) signaling pathway (AID 743222; calls by dose curve; further: potency means the concentration at half of the fitted maximal effect)
# Conditions: HEK293T VDR-UAS-bla, beta-lactamase FRET ratio, 16 h; activation: at 63.5 µM (top of the series) unless noted
# Procedure, shortened: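 Quantitative HTS agonist-mode screen: compounds in DMSO were pin-transferred onto VDR-bla cells and incubated 16 h at 37C, 5% CO2. Reporter activity was detected with LiveBLAzer B/G FRET substrate after 2 h at room temperature.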
# Sequence of UniProt P11473 (P11473 whole entry, looked up): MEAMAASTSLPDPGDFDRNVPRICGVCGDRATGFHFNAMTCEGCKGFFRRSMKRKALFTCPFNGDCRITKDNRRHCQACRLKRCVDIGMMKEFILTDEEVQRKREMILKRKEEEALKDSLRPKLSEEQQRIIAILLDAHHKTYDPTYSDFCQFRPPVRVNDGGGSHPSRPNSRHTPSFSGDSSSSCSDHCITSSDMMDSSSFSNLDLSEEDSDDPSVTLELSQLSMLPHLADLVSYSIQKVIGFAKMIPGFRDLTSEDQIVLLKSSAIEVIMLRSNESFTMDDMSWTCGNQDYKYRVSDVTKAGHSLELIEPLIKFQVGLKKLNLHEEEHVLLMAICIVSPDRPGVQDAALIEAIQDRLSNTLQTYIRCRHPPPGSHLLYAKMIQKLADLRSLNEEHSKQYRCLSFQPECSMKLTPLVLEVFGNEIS
Compound,activation,Potency
NC(N)=NCCC[C@H](N)C(=O)O,inactive: 9.36% [at 6.01 µM],
O=C1OC(=O)C2C3C=CC(C3)C12 (centres undefined),inactive: 0.422%,
CC1=C(CC(=O)O)c2cc(F)ccc2/C1=C\c1ccc(S(C)(=O)=O)cc1,,"inconclusive [rising, full curve, poor fit]"
Cc1cccc(C)c1NC(=O)CN1CCCCCC1,inactive: -4.17%,
CC(=O)Oc1cc(C(C)C)c(OCCN(C)C)cc1C,,"inconclusive [rising, partial curve, poor fit]"
c1ccc2cnncc2c1,inactive: 1.02%,
